# Measurements from PubChem BioAssay (NCATS).
# The inconclusive results got no clear call from the source; some entries with a clear call stand among them for comparison. No potency is given beside an inconclusive call; the fits are too rough. Calls of active or inactive are those of the source. Calls come from the whole dose curve; as a rule, active = well fitted curve in the direction sought with a large enough effect; inconclusive = small, poorly fitted or top-dose-only effect, or another doubt; inactive = no such curve, though single readings can be large; an effect the other way counts as inactive or inconclusive.
# What was measured:
# [1] = qHTS of pediatric cancer cell lines to identify multiple opportunities for drug repurposing: Primary screen for Saos-2 cells (AID 1347097); conditions: Saos-2 viability, CellTiter-Glo ATP luminescence, 48 h; activity change, negative = cytotoxic: at 46 µM (top of the series); note: nearly all actives have a fitted effect of over 40% in size
# How it was run: (§1)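 CRCs from 8- or 11-point titrations (lowest final 0.59 nM NPC, 0.78 nM MIPE). Cell viability: CellTiter-Glo after 48 h incubation, 15 min room-temperature development, luminescence imaging.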
# [2] = qHTS of pediatric cancer cell lines to identify multiple opportunities for drug repurposing: Primary screen for SK-N-SH cells (AID 1347098); conditions: SK-N-SH viability, CellTiter-Glo luminescence, 48 h; activity change, negative = cytotoxic: at 57 µM (top of the series); note: nearly all actives have a fitted effect of over 65% in size;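 for activity change, negative = cytotoxic: DMSO served as neutral control and bortezomib at 2.3 µM as positive control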
# How it was run: (§2)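 Cells (500-1,000/well) rested 5 h, then received compounds for 48 h; metabolically active cells were measured by CellTiter-Glo luminescence. Final concentrations spanned up to 46 µM (MIPE, 11-point) or 0.59 nM-46 µM (NPC, 8-point) in primary screens, 11-point in follow-ups.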
# [3] = qHTS of pediatric cancer cell lines to identify multiple opportunities for drug repurposing: Primary screen for NB1643 cells (AID 1347099); note: nearly all actives have a fitted effect of over 50% in size
# How it was run: as §1
# [4] = qHTS of pediatric cancer cell lines to identify multiple opportunities for drug repurposing: Primary screen for OHS-50 cells (AID 1347103); note: nearly all actives have a fitted effect of over 40% in size
# How it was run: as §2
# [5] = qHTS of pediatric cancer cell lines to identify multiple opportunities for drug repurposing: Primary screen for RD cells (AID 1347104); note: nearly all actives have a fitted effect of over 55% in size
# How it was run: as §1
# [6] = qHTS of pediatric cancer cell lines to identify multiple opportunities for drug repurposing: Primary screen for LAN-5 cells (AID 1347100); conditions: LAN-5 neuroblastoma viability, CellTiter-Glo luminescence, 48 h; activity change, negative = cytotoxic: at 46 µM (top of the series)
# How it was run: (§3)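 Cells (500-1,000/well) in growth media were settled 5 h at 37 degrees C, then given compounds for 48 h. Viability was read as CellTiter-Glo luminescence. Primary runs used MIPE at 11 points (0.78 nM-46 µM) and NPC at 8 points (0.59 nM-46 µM); follow-ups used 11 points.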
# [7] = qHTS of pediatric cancer cell lines to identify multiple opportunities for drug repurposing: Primary screen for Rh18 cells (AID 1347102); note: nearly all actives have a fitted effect of over 65% in size
# How it was run: as §3
# [8] = qHTS of pediatric cancer cell lines to identify multiple opportunities for drug repurposing: Primary screen for BT-12 cells (AID 1347101); note: nearly all actives have a fitted effect of over 25% in size
# How it was run: as §2
# Potency is the fitted concentration of half-maximal effect; tags give direction and shape of the fitted curve.
compound,measurement,setting,value
c1cc(-c2sc(-c3ccncc3)c(-c3ccncc3)c2-c2ccncc2)ccn1,Potency,[1],"inconclusive [cytotoxic, full curve]"
same,Potency,[2],"inconclusive [cytotoxic, single point]"
same,Potency,[3],"inconclusive [cytotoxic, single point]"
same,Potency,[4],inactive
same,Potency,[5],"inconclusive [cytotoxic, single point]"
CC1CCN(c2cc(N3CCN(C)CC3)ccc2NC(=O)c2cc(C#N)c[nH]2)CC1,Potency,[1],"inconclusive [cytotoxic, partial curve]"
same,Potency,[2],active: 21.5 µM
same,Potency,[4],"inconclusive [cytotoxic, partial curve]"
N#C[C@H]1C[C@H]2C[C@@H]2N1C(=O)[C@@H](N)C12CC3CC(CC(O)(C3)C1)C2,Potency,[1],"inconclusive [cytotoxic, partial curve]"
same,Potency,[3],"inconclusive [cytotoxic, partial curve, poor fit]"
same,Potency,[6],"inconclusive [cytotoxic, partial curve, poor fit]"
Nc1nc2[nH]cc(CCc3ccc(C(=O)N[C@@H](CCC(=O)O)C(=O)O)cc3)c2c(=O)[nH]1,Potency,[1],"inconclusive [cytotoxic, partial curve]"
same,Potency,[3],inactive
CC(C)C[C@@H](N)[C@H](O)C(=O)N[C@H](C(=O)N[C@H](C(=O)N[C@@H](CC(=O)O)C(=O)O)C(C)C)C(C)C,Potency,[1],inactive
same,Potency,[2],active: 24.1 µM
same,Potency,[3],"inconclusive [cytotoxic, partial curve]"
same,Potency,[4],inactive
CC[C@H](NC(=O)[C@H](C)NC)C(=O)N1C[C@@H](O)C[C@H]1Cc1c(-c2[nH]c3cc(F)ccc3c2C[C@H]2C[C@H](O)CN2C(=O)[C@H](CC)NC(=O)[C@H](C)NC)[nH]c2cc(F)ccc12,Potency,[1],active: 0.372 µM
same,Potency,[2],"inconclusive [cytotoxic, full curve]"
same,Potency,[3],"inconclusive [cytotoxic, full curve]"
same,Potency,[5],"inconclusive [cytotoxic, full curve]"
Oc1ccc(-c2nc(-c3ccc(F)cc3)c(-c3ccncc3)[nH]2)cc1,Potency,[1],"inconclusive [cytotoxic, partial curve, poor fit]"
same,Potency,[2],"inconclusive [cytotoxic, single point]"
same,Potency,[6],"inconclusive [cytotoxic, single point]"
same,Potency,[7],"inconclusive [cytotoxic, single point]"
same,Potency,[4],"inconclusive [cytotoxic, single point]"
CCOc1cc(CC(=O)N[C@@H](CC(C)C)c2ccccc2N2CCCCC2)ccc1C(=O)O,Potency,[1],inactive
same,Potency,[3],"inconclusive [cytotoxic, partial curve]"
CC[C@H]1OC(=O)[C@H](C)[C@@H](O[C@H]2C[C@@](C)(OC)[C@@H](O)[C@H](C)O2)[C@H](C)[C@@H](O[C@@H]2O[C@H](C)C[C@H](N(C)C)[C@@H]2O)[C@](C)(O)C[C@@H](C)CN(C)[C@H](C)[C@@H](O)[C@]1(C)O,Potency,[1],"inconclusive [cytotoxic, partial curve]"
same,Potency,[2],"inconclusive [cytotoxic, partial curve, poor fit]"
same,Potency,[6],"inconclusive [cytotoxic, single point]"
same,Potency,[7],inactive
Cc1nc2n(c(=O)c1CCN1CCC(c3noc4cc(F)ccc34)CC1)CCCC2,Potency,[1],"inconclusive [cytotoxic, single point]"
same,Potency,[2],inactive
same,Potency,[6],inactive
same,Potency,[8],"inconclusive [cytotoxic, single point]"
Cc1ccc(C(C)(O)c2nc3ccccc3s2)c(C)c1 (stereo not given),Potency,[1],"inconclusive [cytotoxic, single point]"
same,Potency,[2],"inconclusive [cytotoxic, full curve]"
same,Potency,[8],"inconclusive [cytotoxic, partial curve, poor fit]"
same,Potency,[4],"inconclusive [cytotoxic, single point]"
same,Potency,[5],inactive
COC(=O)C[C@](O)(CCCC(C)(C)O)C(=O)O[C@@H]1C(OC)=C[C@]23CCCN2CCc2cc4c(cc2[C@H]13)OCO4,Potency,[1],active: 18.7 µM
same,Potency,[3],"inconclusive [cytotoxic, partial curve]"
same,Potency,[6],inactive
same,Potency,[5],inactive
